Source: US20250223331A1, “GLP-1/GIP DUAL-TARGETED POLYPEPTIDE AND FUSION PROTEIN AND APPLICATIONS THEREOF” (SUNSHINE LAKE PHARMA CO., LTD., priority 2021, published 2025)
Where a chain is given by its changes, count along the chain named.

What was measured:
GLP-1R or GIPR = experiment: in vitro agonistic activity of fusion proteins, summary statement; type: cell-based; settings: cAMP, GLP-1R / GIPR cells
Method: The digested product was electrophoresed on 1% agarose gel and the target band was cut out with a clean blade, then a gel recovery kit was used to recover the target fragment. The specific experimental operations are carried out according to the kit instructions; • 3) The target fragment enzymatic digestion recovery product and vector plasmid pcDNA3.1 fragment were connected through T4 ligase and transformed into DH5a competent cells, then single colonies were isolated by spreading on plates, and the transformants were selected and expanded for enzyme digestion verification and sequencing verification. • 4) 200 mL of the bacterial liquid obtained in inoculation step 3) and verified by sequencing to contain the fusion protein of the target product was used for plasmid extraction. The kit used was PureLink HiPure Plasmid Maxiprep Kit, and according to the instructions. After the plasmid was verified to be correct by PCR and enzyme digestion, pvuI restriction enzyme was used for linearization. Finally, the ethanol precipitation method was used to recover the plasmid. • 5) The host cells were HEK293, one day before transfection, the cells were spread into a 6-well plate at a density of 2×10^6 cells/well, and the addition volume was 1 mL/well. The recovered linearized plasmid was transfected into HEK293 cells using Lipofectamine 3000 transfection method, then G418 was added to screen to obtain mixed strains, single clones were obtained by limiting dilution and isolation, and the activity was tested and verified.
The cAMP produced by the recipient cells was detected by a cAMP detection kit (Cisbio, 62AM6PEC) according to the steps described in the operating instructions. […] If the mixture was not completely melted within 1.5 min, the cells were added dropwise to a 15 mL centrifuge tube containing 8 mL warm culture medium on a clean bench, then centrifuged at 900 rpm for 5 min, the supernatant was discarded, and the cells were re-suspended with 1 mL complete culture medium (15 times by pipetting).

normal C57BL/6 mice = experiment: glucose tolerance in normal C57BL/6 mice (Example 8); type: in vivo; settings: for Blood glucose value 0 min / Blood glucose value 15 min / Blood glucose value 30 min / Blood glucose value 60 min / Blood glucose value 90 min: 3 nmol/kg s.c. single dose, 72 h after dose, 2 g/kg glucose i.p.; for effect on blood glucose levels: normal C57 mice after a single dose for 72 h
Method: Experimental methods: Normal C57BL/6 mice were randomly divided into 6 groups (Vehicle group, Dulaglutide group, HEC-G113 group, HEC-G122 group, HEC-G126 group, HEC-G127 group) according to blood glucose and body weight, with 8 mice in each group. For the groups of Dulaglutide (Dulaglutide purchased from Eli Lilly, lot number was D256504), HEC-G113, HEC-G122, HEC-G126 and HEC-G127, the corresponding drug was injected subcutaneously into the mice at a dose of 3 nmol/kg, and for the control group, the corresponding vehicle was injected subcutaneously.
After 60 h of single administration, the mice were fasted for 12 h and drank water freely. Blood was collected from the tail vein to measure the basal blood glucose value of each group, then 2 g/kg of glucose solution was injected intraperitoneally, and blood glucose was measured at 15, 30, 60, 90 and 0 min after glucose administration. According to the blood glucose values measured at different time points, the blood glucose concentration-time curve was plotted, and the AUC0˜90min of each dose group was calculated, and the experimental results are shown in Table 7 and FIGS. 3-4

B1: HEC-G06: fusion protein of SEQ ID NO: 5 polypeptide, linker peptide and Fc fragment (protein)
chain: YGEGTFTSDYSIYLDKKAQRDFVEWLLAQGPSSGAPPPSGGGGSGGGGSGGGGSA[here human IgG4 Fc with S228P F234A L235A (EU numbers) without letters]
agonistic activity in vitro (GLP-1R or GIPR): strong activity in vitro

B2: HEC-G23: fusion protein of SEQ ID NO: 16 polypeptide, linker peptide and Fc fragment (protein)
chain: B1 chain with L27I, Q29G
agonistic activity in vitro (GLP-1R or GIPR): strong activity in vitro

B3: HEC-G34: fusion protein of SEQ ID NO: 25 polypeptide, linker peptide and Fc fragment (protein)
chain: B1 chain with K17Q, L27I, Q29G
agonistic activity in vitro (GLP-1R or GIPR): strong activity in vitro

B4: HEC-G35: fusion protein of SEQ ID NO: 26 polypeptide, linker peptide and Fc fragment (protein)
chain: B1 chain with G2A, K17L, R20Q, D21E, V23I, E24D, L27K, Q29G
agonistic activity in vitro (GLP-1R or GIPR): strong activity in vitro

B5: HEC-G37: fusion protein of SEQ ID NO: 27 polypeptide, linker peptide and Fc fragment (protein)
chain: B1 chain with G2A, K17L, R20Q, D21A, V23I, L27K, Q29G
agonistic activity in vitro (GLP-1R or GIPR): strong activity in vitro

B6: HEC-G38: fusion protein of SEQ ID NO: 28 polypeptide, linker peptide and Fc fragment (protein)
chain: B1 chain with G2A, K17L, R20Q, D21A, V23I, Q29G
agonistic activity in vitro (GLP-1R or GIPR): strong activity in vitro

B7: HEC-G48: fusion protein of SEQ ID NO: 37 polypeptide, linker peptide and Fc fragment (protein)
chain: B1 chain with G2A, K17I, R20Q, D21A, V23I, Q29G
agonistic activity in vitro (GLP-1R or GIPR): strong activity in vitro

B8: HEC-G66: fusion protein of SEQ ID NO: 50 polypeptide, linker peptide and Fc fragment (protein)
chain: B1 chain with K17L, R20Q, D21A, Q29G
agonistic activity in vitro (GLP-1R or GIPR): strong activity in vitro

B9: HEC-G67: fusion protein of SEQ ID NO: 51 polypeptide, linker peptide and Fc fragment (protein)
chain: B1 chain with G2S, Q29G
agonistic activity in vitro (GLP-1R or GIPR): strong activity in vitro

B10: HEC-G72: fusion protein of SEQ ID NO: 56 polypeptide, linker peptide and Fc fragment (protein)
chain: B1 chain with V23I, E24D, Q29G
agonistic activity in vitro (GLP-1R or GIPR): strong activity in vitro

B11: HEC-G74: fusion protein of SEQ ID NO: 58 polypeptide, linker peptide and Fc fragment (protein)
chain: B1 chain with V23I, L27I
agonistic activity in vitro (GLP-1R or GIPR): strong activity in vitro

B12: HEC-G99: fusion protein of SEQ ID NO: 83 polypeptide, linker peptide and Fc fragment (protein)
chain: B1 chain with Y13A, V23I, E24D, Q29G
agonistic activity in vitro (GLP-1R or GIPR): strong activity in vitro

B13: HEC-G101: fusion protein of SEQ ID NO: 85 polypeptide, linker peptide and Fc fragment (protein)
chain: B1 chain with R20Q, V23I, E24D, Q29G
agonistic activity in vitro (GLP-1R or GIPR): strong activity in vitro

B14: HEC-G122: fusion protein of SEQ ID NO: 102 polypeptide, linker peptide and Fc fragment (protein)
chain: B1 chain with G2S, Y13L, K17I, D21E, V23I, L27I, Q29G
Blood glucose value 0 min (normal C57BL/6 mice): 4.5 ± 0.4 mM | Blood glucose value 15 min (normal C57BL/6 mice): 7.8 ± 1.9 mM | Blood glucose value 30 min (normal C57BL/6 mice): 6.6 ± 1.7 mM | Blood glucose value 60 min (normal C57BL/6 mice): 5.3 ± 1.1 mM | Blood glucose value 90 min (normal C57BL/6 mice): 4.8 ± 0.7 mM | effect on blood glucose levels (normal C57BL/6 mice): significantly reduced the blood glucose levels

B15: HEC-G126: fusion protein of SEQ ID NO: 106 polypeptide, linker peptide and Fc fragment (protein)
chain: B1 chain with Y13L, K17I, D21E, V23I, Q29G
Blood glucose value 0 min (normal C57BL/6 mice): 4.0 ± 0.4 mM | Blood glucose value 15 min (normal C57BL/6 mice): 7.3 ± 1.0 mM | Blood glucose value 30 min (normal C57BL/6 mice): 6.7 ± 0.7 mM | Blood glucose value 60 min (normal C57BL/6 mice): 5.4 ± 0.7 mM | Blood glucose value 90 min (normal C57BL/6 mice): 4.5 ± 1.0 mM | effect on blood glucose levels (normal C57BL/6 mice): significantly reduced the blood glucose levels

B16: HEC-G127: fusion protein of SEQ ID NO: 107 polypeptide, linker peptide and Fc fragment (protein)
chain: B1 chain with G2S, Y13L, V23I, Q29G
Blood glucose value 0 min (normal C57BL/6 mice): 4.1 ± 0.4 mM | Blood glucose value 15 min (normal C57BL/6 mice): 7.4 ± 2.2 mM | Blood glucose value 30 min (normal C57BL/6 mice): 7.1 ± 1.7 mM | Blood glucose value 60 min (normal C57BL/6 mice): 5.6 ± 0.9 mM | Blood glucose value 90 min (normal C57BL/6 mice): 4.4 ± 0.7 mM | effect on blood glucose levels (normal C57BL/6 mice): significantly reduced the blood glucose levels
